Data as given in publication PMC4336329 (PLoS ONE, 2015).
Out of some 310,000 compounds screened, about 14,000 (4.5%) showed an effect of 50% or more. The effect is printed as a negative number. This is one part of the list.

What follows are compounds tested against human ether-à-go-go-related gene (hERG) potassium channel (human, UniProt Q12809) (assay: primary screen, population patch clamp on CHO cells stably expressing hERG).
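Also: peak tail current of the secondary pulse compared with the same well before compound.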

human ether-à-go-go-related gene (hERG) potassium channel, sequence (Q12809 whole entry, looked up): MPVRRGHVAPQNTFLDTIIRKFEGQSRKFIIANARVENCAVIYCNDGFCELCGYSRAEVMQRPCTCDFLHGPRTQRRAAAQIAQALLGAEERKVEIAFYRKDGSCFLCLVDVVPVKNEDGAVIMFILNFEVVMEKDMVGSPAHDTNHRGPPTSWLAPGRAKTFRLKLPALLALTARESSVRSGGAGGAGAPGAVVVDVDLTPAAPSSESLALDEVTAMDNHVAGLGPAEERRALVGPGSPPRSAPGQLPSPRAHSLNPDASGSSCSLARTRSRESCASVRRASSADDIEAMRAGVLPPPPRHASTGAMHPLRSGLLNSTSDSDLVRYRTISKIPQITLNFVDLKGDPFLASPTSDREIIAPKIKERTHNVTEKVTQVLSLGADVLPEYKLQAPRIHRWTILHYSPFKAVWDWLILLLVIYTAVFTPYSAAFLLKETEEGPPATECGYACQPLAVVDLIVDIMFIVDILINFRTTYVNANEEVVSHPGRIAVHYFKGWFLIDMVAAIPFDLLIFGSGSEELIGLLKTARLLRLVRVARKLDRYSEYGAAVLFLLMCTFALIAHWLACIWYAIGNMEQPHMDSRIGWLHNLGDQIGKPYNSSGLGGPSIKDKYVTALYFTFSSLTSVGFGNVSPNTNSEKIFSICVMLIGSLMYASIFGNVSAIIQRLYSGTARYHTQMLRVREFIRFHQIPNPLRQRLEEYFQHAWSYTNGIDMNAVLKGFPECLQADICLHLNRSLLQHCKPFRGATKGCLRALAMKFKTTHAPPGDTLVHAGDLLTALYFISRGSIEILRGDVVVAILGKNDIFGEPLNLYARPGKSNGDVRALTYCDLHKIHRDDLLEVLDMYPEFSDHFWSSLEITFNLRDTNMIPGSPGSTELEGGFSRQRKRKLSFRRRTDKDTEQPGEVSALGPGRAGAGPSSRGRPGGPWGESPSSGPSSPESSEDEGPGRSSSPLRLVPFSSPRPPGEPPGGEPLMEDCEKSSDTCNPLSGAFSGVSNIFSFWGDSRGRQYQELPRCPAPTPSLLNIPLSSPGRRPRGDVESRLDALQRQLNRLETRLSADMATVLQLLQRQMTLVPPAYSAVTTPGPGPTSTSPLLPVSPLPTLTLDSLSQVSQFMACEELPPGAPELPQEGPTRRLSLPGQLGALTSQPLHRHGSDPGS

| SMILES | hERG current change (%, negative = inhibition) at 10uM |
| --- | --- |
| Cc1nc2ccc(NC(=O)c3cccs3)cc2s1 | 19.8% |
| Brc1cccc(-c2nnc(SCc3ccon3)n2-c2ccccc2)c1 | -48.9% |
| COc1cc(C(C)=O)ccc1OCC(O)CN1CCN(c2ccc(C)cc2C)CC1 (stereo not drawn) | -58.3% |
| COc1ccccc1Oc1ccc(NC(=O)Cc2ccccc2)cc1 | 2.39% |
| COc1cc(NS(=O)(=O)c2ccc(NC(=O)c3ccc(S(=O)(=O)N4CCCC4)cc3)cc2)ncn1 | 26.5% |
| O=S(=O)(c1ccc(-c2nnco2)cc1)N1CCCCC1 | 4.04% |
| Cc1ccnc(NC(=O)C2CCN(S(=O)(=O)c3ccc4ccccc4c3)CC2)c1 | 7.94% |
| Cc1nc([N+](=O)[O-])cn1CC(O)c1ccc(Cl)cc1 (stereo not drawn) | -2.66% |
| CC(C)Cc1nnc(NC(=O)CCC(=O)Nc2ccc(F)cc2)s1 | -2.11% |
| CC(C)NC(=O)/C(=N\O)c1ccccc1 | -2.21% |
| Cc1cc(NC(=O)C(C)SCC(=O)OCC(=O)Nc2c(C)cccc2C(C)C)no1 (stereo not drawn) | 2.9% |
| O=[N+]([O-])c1ccc(NCc2ccncc2)cc1 | -3.55% |
| Cc1cc(C)n(C(C)CC(=O)Nc2ccc3c(c2)OCCO3)n1 (stereo not drawn) | -1% |
| CC(=O)c1cc(F)c(N2CCN(C(=O)Cc3ccccc3)CC2)cc1C | -11.5% |
| Cc1cccc(-c2cc3nc(C)cc(NCCCN(C)C)n3n2)c1 | -38.1% |
| COc1cccc(CNC(=O)c2nnn(CC(=O)Nc3cc(Cl)ccc3C)c2N)c1 | 10.4% |
| Cc1ccccc1-c1cc(C(=O)N2CCCC2)c2ccccc2n1 | -47.9% |
| OCc1nnn(-c2ccccc2)c1CO | 14.3% |
| CC(CCC(=O)O)C1CCC2C3C(O)CC4CC(O)CCC4(C)C3CC(O)C12C (stereo not drawn) | 4.66% |
| Nc1ccccc1Nc1nc2ccccc2[nH]1 | -6.13% |
| CC(C)(C)OC(=O)n1cc(CCO)c2ccccc21 | -3.4% |
| O=C(Nc1sc2c(c1C(=O)NCCCO)CCCC2)c1ccccc1 | -11.6% |
| Cc1cc(C)cc(NC(=O)NNC(=O)c2cc3occc3[nH]2)c1 | 13% |

| SMILES | hERG current change (%, negative = inhibition) at 10uM |
| --- | --- |
| COC(=O)c1ccc2c(=O)n(CCN3CCOCC3)c(SCC(=O)C(C)(C)C)nc2c1 | -34.4% |
| COC(=O)C1=C(N)Oc2cc(C)[nH]c(=O)c2C1c1cccnc1 (stereo not drawn) | -3.87% |
| CCOC(=O)c1c(NC(=O)c2cc(C)on2)c2cc([N+](=O)[O-])ccc2n1C | 25.9% |
| Cc1ccc(OCCOc2ccc(S(=O)(=O)N3CCCC3)cc2C(N)=O)cc1 | -6.6% |
| CC(C)N(C)Cc1nnnn1CC(=O)NCc1cc(F)cc(C(F)(F)F)c1 | 14.5% |
| Cc1c(C(=O)N(C)c2ccccc2Cl)cnn1-c1ccccc1 | -8.8% |
| CC(C)Cc1nc(SCC(=O)NCc2ccccc2)n[nH]1 | 10.7% |
| O=C(CC1C(=O)NCCN1Cc1ccc(F)cc1Cl)NCc1ccon1 (stereo not drawn) | 10.8% |
| Cc1cc([N+](=O)[O-])nn1CC(=O)N1c2ccccc2CC1C (stereo not drawn) | -10.2% |
| O=C(c1ccc(Cl)cc1)N1CCCCC(Sc2nnc(-c3ccc4c(c3)OCO4)o2)C1=O (stereo not drawn) | 14.6% |
| COc1ccc2c(c1)CCc1c(C(=O)N3CC4(C)CC3CC(C)(C)C4)noc1-2 (stereo not drawn) | -5.94% |
| CCC(C)[C@H](NC(=O)C1CC(=O)N(c2ccc(OC)cc2)C1)C(=O)N1CCCCC1 (stereo partly drawn) | 18.7% |
| c1cncc(-c2nc(-c3ccc4c(c3)OCO4)cs2)c1 | 7.57% |
| O=c1[nH]cc(S(=O)(=O)NCc2ccccc2)c(=O)[nH]1 | 18.4% |
| O=C(CN(c1cccc([N+](=O)[O-])c1)S(=O)(=O)c1ccccc1)N1CCCCC1 | -24.8% |
| COc1ccc(OC)c(Cc2nnc(CCC(=O)NC3CCCC3)o2)c1 | 6.95% |
| CC1=C/C(=N\NC(=O)c2cccs2)CC(C)(C)C1 | 11.5% |
| C/C(Cl)=C\Cn1c(N2CCCC2)nc2c1c(=O)[nH]c(=O)n2C | -20.4% |
| O=C(NNc1c(F)c(F)cc(F)c1F)c1ccc(Cl)nc1 | 25.2% |
| CC/C(=N\NC(=O)c1nnn(-c2nonc2N)c1CN(C)c1ccccc1)c1ccccc1 | 11.4% |
| CCC(=O)c1cn(CCOc2ccccc2OC)c2ccccc12 | 20.3% |
| CNC(=O)CS(=O)CC(=O)Nc1cc(OC(C)C)c(Cl)cc1Cl (stereo not drawn) | 16.5% |
